Measured values reported in PMC4336329 (PLoS ONE, 2015).
About 14,000 (4.5%) of roughly 310,000 compounds showed an effect of 50% or more. The effect is printed as a negative number. Some of the results follow.

molecular target: human ether-à-go-go-related gene (hERG) potassium channel (human, UniProt Q12809); assay: primary screen, population patch clamp on CHO cells stably expressing hERG
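Further: peak tail current of the secondary pulse compared with the same well before compound.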

Sequence of human ether-à-go-go-related gene (hERG) potassium channel (Q12809 whole entry, looked up): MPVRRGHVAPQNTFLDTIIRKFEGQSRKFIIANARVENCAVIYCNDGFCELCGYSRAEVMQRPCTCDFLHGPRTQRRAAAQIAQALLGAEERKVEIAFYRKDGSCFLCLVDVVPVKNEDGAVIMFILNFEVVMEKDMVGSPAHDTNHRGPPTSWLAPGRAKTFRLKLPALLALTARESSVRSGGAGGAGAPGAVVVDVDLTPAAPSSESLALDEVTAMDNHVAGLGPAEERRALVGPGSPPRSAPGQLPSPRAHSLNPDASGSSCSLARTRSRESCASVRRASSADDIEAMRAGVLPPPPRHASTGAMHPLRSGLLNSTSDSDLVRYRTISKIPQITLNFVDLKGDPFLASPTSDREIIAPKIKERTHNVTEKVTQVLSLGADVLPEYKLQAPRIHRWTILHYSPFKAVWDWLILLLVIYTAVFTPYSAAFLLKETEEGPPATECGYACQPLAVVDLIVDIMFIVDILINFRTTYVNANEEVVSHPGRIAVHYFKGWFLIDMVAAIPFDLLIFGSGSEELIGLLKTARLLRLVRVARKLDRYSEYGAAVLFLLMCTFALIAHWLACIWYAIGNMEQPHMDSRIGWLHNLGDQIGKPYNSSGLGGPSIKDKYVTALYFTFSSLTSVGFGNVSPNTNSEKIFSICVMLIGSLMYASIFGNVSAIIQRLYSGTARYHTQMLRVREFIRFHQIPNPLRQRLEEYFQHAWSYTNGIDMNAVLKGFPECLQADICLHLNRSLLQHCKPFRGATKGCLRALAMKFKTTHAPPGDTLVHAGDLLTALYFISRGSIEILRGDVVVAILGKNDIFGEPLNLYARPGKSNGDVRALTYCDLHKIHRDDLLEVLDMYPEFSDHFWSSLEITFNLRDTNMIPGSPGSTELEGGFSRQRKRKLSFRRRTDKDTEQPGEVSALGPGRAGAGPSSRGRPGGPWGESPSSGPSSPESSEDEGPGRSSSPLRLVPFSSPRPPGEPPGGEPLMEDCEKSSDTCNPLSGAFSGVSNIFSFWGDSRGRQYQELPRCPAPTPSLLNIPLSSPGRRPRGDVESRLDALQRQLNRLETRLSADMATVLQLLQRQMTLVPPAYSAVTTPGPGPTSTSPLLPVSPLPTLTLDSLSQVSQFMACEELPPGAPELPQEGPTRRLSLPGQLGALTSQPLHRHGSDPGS

Going from `CCC/C(=C1/C(=O)CC(C)(C)C(C(=O)OC)C1=O)N1CCCC1` (stereo not drawn) to `CCCCNC(=O)N1CCN(C(=O)c2ccco2)CC1`, the “hERG current change (%, negative = inhibition) at 10uM” value falls from -7.75% to -13.9%.

First: Cc1ccc(OC(=O)CN2C(=O)c3ccccc3C2=O)cc1C
Second: O=C1c2ccccc2C(=O)N1CCCCN(C(=O)c1cc([N+](=O)[O-])cc([N+](=O)[O-])c1)c1ccc(Cl)cc1
The “hERG current change (%, negative = inhibition) at 10uM” value of the first is higher: 26.2% for the first, 5.87% for the second.

First: COc1cccc(OCC(=O)N2CCC3(CC2)CC(=O)c2ccccc2O3)c1
Second: Cc1cccc(OP(=O)(NCc2ccccc2)Oc2cccc(C)c2)c1
The “hERG current change (%, negative = inhibition) at 10uM” value of the first is lower: -55.8% for the first, -5.69% for the second.

First: S=C(NCCN1CCOCC1)Nc1ccc(-c2nc3ccccc3[nH]2)cc1
Second: Cc1cccc2cc3c(NC(=O)c4ccccn4)nn(C)c3nc12
The “hERG current change (%, negative = inhibition) at 10uM” value of the first is higher: 12.8% for the first, 4.21% for the second.

Compared with `CC(C)OP(=O)(OC(C)C)C1(O)C(=O)Nc2ccc(Br)cc21` (stereo not drawn), `CC(Cc1ccco1)NC(=O)c1cccc(S(=O)(=O)N(C)C)c1` (stereo not drawn) is higher in “hERG current change (%, negative = inhibition) at 10uM” value: -7.85% for the first, 5.58% for the second.

Compared with `Cc1ccc(/C(CSc2nccn2-c2ncc(C(F)(F)F)cc2Cl)=N\O)cc1`, `Cc1ccc(-c2nsc3c(N4CCC(C(N)=O)CC4)ncnc23)cc1` is higher in “hERG current change (%, negative = inhibition) at 10uM” value: -0.514% for the first, 2.23% for the second.

Compared with `CC(=O)Nc1ccc(C(=O)CCl)cc1`, `C=C(C)C(=O)NNc1ccccc1` is higher in “hERG current change (%, negative = inhibition) at 10uM” value: -11.1% for the first, 18.5% for the second.

Going from `Cn1c(COc2ccccc2)nnc1SCCSc1nnc(COc2ccccc2)n1C` to `Cn1c(=O)c2c(nc(SCCCO)n2Cc2ccccc2Cl)n(C)c1=O`, the “hERG current change (%, negative = inhibition) at 10uM” value rises from -48.9% to -29.2%.

First: CCOc1c2ccc(C(=O)NCCc3cccs3)cc2nn1CC
Second: Cc1ccc(S(=O)(=O)N2CCN(C(=O)CCn3nc(C)c(C)c3C)CC2)cc1
The “hERG current change (%, negative = inhibition) at 10uM” value of the first is lower: -9.69% for the first, 11.1% for the second.

Compared with `COC(=O)c1nn2c(C(F)(F)F)cc(-c3ccc(Br)o3)nc2c1Br`, `COc1cc(C(=O)Oc2c(OC)cc(C(=S)N3CCOCC3)cc2OC)cc(OC)c1OC` is higher in “hERG current change (%, negative = inhibition) at 10uM” value: 2.67% for the first, 15.4% for the second.

Going from `O=S(=O)(c1cccc2c(S(=O)(=O)N3CCCC3)cccc12)N1CCCC1` to `O=C(C1CCC1)N1CCN(S(=O)(=O)c2ccc(Br)cc2Cl)CC1`, the “hERG current change (%, negative = inhibition) at 10uM” value falls from 3.88% to -21.8%.

Compared with `Cc1nc2cc(N3CCCCC3)c(NC(=O)c3ccncc3)cc2c(=O)n1Cc1ccc(Cl)cc1`, `COc1ccc(C2Nc3ccccc3C(=O)N2NS(=O)(=O)c2ccc(C)cc2)cc1OC` (stereo not drawn) is lower in “hERG current change (%, negative = inhibition) at 10uM” value: 21.9% for the first, 4.14% for the second.
